Results as given in patent US20120027773A1 (AVEO PHARMACEUTICALS, published 2012).

How the values were obtained:
[1] = molecular target: T1, recombinant human RON SEMA and PSI domains (human, UniProt Q04912 25-571); experiment: SPR, Ab captured on anti-human IgG Fc, 37 C, screening
T1 construct: domain: SEMA+PSI; Commercial protein (R&D Systems); also called rhRON SEMA+PSI; hRON SEMA+PSI
Method: (§1) Goat anti-human IgG Fc (Jackson ImmunoResearch, Catalog No. 109-005-098) was immobilized on carboxymethylated dextran CM4 sensor chips (Biacore) by amine coupling (Biacore) using a standard coupling protocol according to the vendor's instructions. The analyses were performed at 37° C. using PBS (Invitrogen) containing 0.05% surfactant P20 (Biacore) as running buffer.
(§2) The antibodies were captured in individual flow cells at a flow rate of 60 μl/minute. Injection time was varied for each antibody to yield an Rₘₐₓ between 30 and 60 RU. Buffer or rhRON SEMA+PSI diluted in running buffer was injected sequentially over a reference surface (no antibody captured) and the active surface (antibody to be tested) for 300 seconds at 60 μl/minute. The dissociation phase was monitored for up to 1200 seconds. The surface was then regenerated with two 60 second injections of Glycine pH 2.25 (made from Glycine pH 2.0 (Biacore) and pH 2.5 (Biacore)) at 60 μl/minute. For the initial screening, only one or two concentrations of rhRON SEMA+PSI were tested, typically 10.0 and 2.5 nM (results are summarized in Table 20).
Kinetic parameters were determined using the kinetic function of the BIAevaluation software (Biacore) with double reference subtraction. Kinetic parameters for each antibody, kₐ (association rate constant), kd (dissociation rate constant) and KD (equilibrium dissociation constant) were determined. Certain monoclonal antibodies were screened using cell culture media supernatant containing secreted antibody, and kinetic values of the monoclonal antibodies on rhRON SEMA+PSI at 37° C. are summarized in Table 20.

[2] = molecular target: T1, recombinant human RON SEMA and PSI …; experiment: SPR, purified Ab captured on anti-human IgG Fc, 25 C
[3] = molecular target: T1, recombinant human RON SEMA and PSI …; experiment: SPR, purified Ab captured on anti-human IgG Fc, 37 C
Method: as §1, §2
The binding affinities and kinetics of certain purified monoclonal antibodies were also determined. To further characterize certain antibodies, the surface plasmon resonance experiments described above were conducted using concentrations of rhRON SEMA+PSI between 0.3125 nM and 10.0 nM (a 2-fold serial dilution).

B1: Sh29B06-1 (antibody, human IgG1, kappa)
heavy: EVQLQESGPSLVKPSQTLSLTCSVTGDSITSGYWNWIRKFPGNKLEYMGYISYSGKTYYNPSLKSRISITRDTSKNHYYLQLISVTAEDTATYYCARSKYDYAMDYWGQGTSVTVSSASTKGPSVFPLAPSSKSTSGGTAALGCLVKDYFPEPVTVSWNSGALTSGVHTFPAVLQSSGLYSLSSVVTVPSSSLGTQTYICNVNHKPSNTKVDKRV[letters of human IgG1 Fc left out]
light: DIVLTQSPASLAVSLGQRATISCRASEIVDNFGISFMNWFQQKPGQPPKLLIYAASNQGSGVPARFSGSGSGTDFSLNIHPVEEDDTAMYFCQQSKEVPPTFGGGTKLEIKRTVAAPSVFIFPPSDEQLKSGTASVVCLLNNFYPREAKVQWKVDNALQSGNSQESVTEQDSKDSTYSLSSTLTLSKADYEKHKVYACEVTHQGLSSPVTKSFNRGEC
notes: Chimeric: mouse variable regions, human IgG1/kappa; also called Chimeric 29B06
- Kd [1]: 1.1 nM
- koff [1]: 0.00076 s⁻¹
- kon [1]: 670000 M⁻¹ s⁻¹
- Kd [2]: 0.36 nM
- koff [2]: 0.0002 s⁻¹
- kon [2]: 530000 M⁻¹ s⁻¹
- Kd [3]: 0.86 nM
- koff [3]: 0.0007 s⁻¹
- kon [3]: 820000 M⁻¹ s⁻¹
